Experimental data from PubChem BioAssay AID602233 (National Center for Advancing Translational Sciences (NCATS), 2012).
Among all 380,000 compounds or so, about 170 (0.045%) were called active. Calls come from the whole dose curve; as a rule, active = well fitted inhibition curve with a large enough effect; inconclusive = small, poorly fitted or top-dose-only effect; inactive = no such curve, though single readings can be large or run the other way. The entries are a selection whose mix differs from that of the whole data set. More than one record can exist for a structure, and the calls need not agree.

These compounds were tested against Phosphoglycerate kinase, glycosomal (Trypanosoma brucei brucei) (UniProt P07378) (assay: qHTS Assay to Find Inhibitors of Phosphoglycerate Kinase). Details: PGK/GAPDH coupled, Kinase-Glo luminescence, 60 min; series mostly up to 57.5 µM; activity change, negative = inhibition: at the top concentration.
In short: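 Recombinant glycosomal PGK reaction used 1,3-bisphosphoglycerate generated in-well by GAPDH (100nM final) in 100mM TEA pH 7.6, 5mM MgCl2, 0.01% Tween-20. After 60 minutes at room temperature, ATP was read by Kinase-Glo Plus luminescence end-point.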
% is set by controls: 0 for no effect and ±100 for the full control effect; potency is the fitted concentration of half-maximal effect.
Note: nearly all actives have a fitted effect of over 60% in size.

Row | Structure (SMILES) | Potency | activity change, negative = inhibition
1 | O=C(O)c1ccc(-c2ccc(/C=C3\NC(=O)N(Cc4ccc(Cl)cc4)C3=O)o2)cc1Cl | active: 25.1 µM | –
2 | Cc1nc2ccccn2c1C(=O)NN | – | inactive: 31%
3 | C=C(C)C(=O)Nc1cccc(C2=NOC3(C2)C[C@H](C(N)=O)N(C(=O)C(c2ccccc2)c2ccccc2)C3)c1 (stereo partly specified) | active: 7.94 µM | –
4 | CN(C)c1ncc(S(=O)(=O)c2ccc(Cl)cc2)c(-c2ccc(Cl)cc2Cl)n1 | – | inactive: 17%
5 | CCCCCC(=O)Nc1cc(S(=O)(=O)O)cc2cc(S(=O)(=O)O)cc(O)c12 | active: 1.12 µM | –
6 | CCOC(=O)c1c(S(=O)(=O)NCC(=O)Nc2cc(C)ccc2C)c(C)n(C)c1C | – | inactive: -1.55%
7 | C[C@@H]1O[C@@H](OC[C@H]2O[C@@H](Oc3c(-c4ccc(O)cc4)oc4cc(O)cc(O)c4c3=O)[C@H](O)[C@@H](O)[C@@H]2O)[C@H](O)[C@H](O)[C@H]1O | – | inactive: -1.24%
8 | COc1ccc(C2=CC3=C(Br)C(=O)C(C)(OC(=O)C4CCCC4)C(=O)C3=CO2)cc1 (stereo unspecified) | active: 17.8 µM | –
9 | COc1ccc2nc3oc(C(=O)N4CCN(c5cccc(Cl)c5)CC4)cc3cc2c1 | – | inactive: 21.4%
10 | COc1nc(N)c(S(=O)(=O)c2ccccc2)cc1C#N | – | inactive: 24.7%
11 | O=C1CCN(c2ccc([N+](=O)[O-])cc2F)CC1 | – | inactive: 23.7%
12 | O=C(O)COc1ccc2c(c1)O/C(=C\c1ccco1)C2=O | active: 28.2 µM | –
13 | COc1ccc(OC)c(/C=C/C(=O)OCC(=O)N2C(C)CCCC2C)c1 (stereo unspecified) | – | inactive: 20.2%
14 | O=C1C=CC2=C3c4cc(O)c(O)cc4CC3(O)COC2=C1O (stereo unspecified) | active: 2.82 µM | –
15 | CN(CCC#N)C(=O)COC(=O)c1c2c(nc3ccccc13)/C(=C\c1ccco1)CC2 | – | inactive: -28.8%
16 | COc1ccc(Nc2nc(NCc3ccco3)nc(N)c2[N+](=O)[O-])cc1 | – | inactive: 24.4%
17 | CCN1CCN(Cc2ccc(NC(=O)c3ccc(C)c(NC(=O)N4CCNC4=O)c3)cc2C(F)(F)F)CC1 | inactive | –
18 | Cc1cc(C)n2nc(C)c(Br)c2n1 | – | inactive: 31.8%
19 | CN(C)c1ccc(N=Nc2nc3ccccc3n2C)cc1 | active: 14.1 µM | –
20 | COc1cccc(C(=O)C2CCCN(C(=O)CCc3scnc3C)C2)c1 (stereo unspecified) | – | inactive: 23.9%
21 | NS(=O)(=O)c1cc(C(=O)NC2CCSc3ccccc32)ccc1Cl (stereo unspecified) | active: 1 µM | –
22 | COc1ccc(CC(=O)NNc2ncnc3c2cnn3-c2ccccc2)cc1 | – | inactive: 27.9%
23 | O=c1c2ccccc2nc(/C=C/c2ccc3c(c2)OCO3)n1CCCO | – | inactive: -7.63%
24 | Cc1ccc(-c2nnc3ccc(SCC(=O)Nc4cc(C)on4)nn23)cc1 | – | inactive: 33.2%
25 | CCN(CC)S(=O)(=O)c1cccc(NC(=O)CSc2nnc(N)s2)c1 | – | inactive: 29.8%
26 | CN(CCOC(=O)/C=C/c1ccco1)Cc1ccccc1 | active: 11.2 µM | –
